Assay results as given in PubChem BioAssay AID2147 (National Center for Advancing Translational Sciences (NCATS), 2009).
About 3,600 (1.6%) of roughly 230,000 compounds were called active. Inconclusive results, whose numbers are uncertain, are shown with a selection of clear calls. The call rests on the fitted dose curve; in most records, active means well fitted inhibition curve with a large enough effect (not every such curve was filed as active); inconclusive means small, poorly fitted or top-dose-only effect, or another doubt; inactive means no such curve, though single readings can be large or run the other way. Where the call is inconclusive, the potency comes from a doubtful curve fit.

What follows are molecules tested against Lysine-specific demethylase 4E (Homo sapiens) (UniProt B2RXH2) (assay: qHTS Assay for Inhibitors of Human Jumonji Domain Containing 2E (JMJD2E)). Conditions: JMJD2E catalytic domain, FDH-coupled NADH fluorescence (FDH is formaldehyde dehydrogenase); series mostly up to 57.1 µM.
Further: nearly all actives have a fitted effect of over 50% in size.
Potency means the concentration at half of the fitted maximal effect; tags describe the fitted curve by direction and shape.

Chain of UniProt B2RXH2 (B2RXH2 whole entry, looked up, the tested form may be a part): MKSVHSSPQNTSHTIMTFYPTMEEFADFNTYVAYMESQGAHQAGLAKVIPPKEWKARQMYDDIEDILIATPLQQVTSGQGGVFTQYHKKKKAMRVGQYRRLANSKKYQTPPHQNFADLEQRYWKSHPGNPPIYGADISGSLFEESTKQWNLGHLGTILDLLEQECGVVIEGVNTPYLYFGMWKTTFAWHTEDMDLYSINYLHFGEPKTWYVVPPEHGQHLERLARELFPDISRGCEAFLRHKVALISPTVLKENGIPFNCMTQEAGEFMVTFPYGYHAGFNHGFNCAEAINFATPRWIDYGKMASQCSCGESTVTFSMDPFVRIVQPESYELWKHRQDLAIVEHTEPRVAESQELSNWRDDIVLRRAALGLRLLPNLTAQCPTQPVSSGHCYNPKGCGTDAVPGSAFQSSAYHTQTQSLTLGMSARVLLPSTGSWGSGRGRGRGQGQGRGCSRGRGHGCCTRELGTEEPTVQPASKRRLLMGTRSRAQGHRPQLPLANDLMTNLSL

| Compound | Potency |
| --- | --- |
| CC1CC(C)CN(CCCOc2ccccc2[N+](=O)[O-])C1 (configuration not stated) | inactive |
| CCN(CC)c1ccc2cc(S(=O)(=O)c3ccc(Cl)cc3)c(=O)oc2c1 | inconclusive: 22.4 µM [inhibitor, single point] |
| CCOc1ccc(-c2nc(C#N)c(N3CCN(C)CC3)o2)cc1 | inconclusive: 28.2 µM [inhibitor, partial curve] |
| O=c1cc(-c2ccc(O)cc2)oc2c([C@@H]3O[C@H](CO)[C@@H](O)[C@H](O)[C@H]3O)c(O)c([C@@H]3O[C@H](CO)[C@@H](O)[C@H](O)[C@H]3O)c(O)c12 | inconclusive: 28.2 µM [inhibitor, single point] |
| CCn1c(NC(=O)c2cccs2)nc2ccccc21 | inconclusive: 28.2 µM [inhibitor, single point] |
| CCOc1ccc(NS(=O)(=O)CC23CCC(CC2=O)C3(C)C)cc1 (configuration not stated) | inactive |
| CCOC(=O)N1CCN(C(=O)CS(=O)Cc2nc(-c3cccc(C)c3)oc2C)CC1 (configuration not stated) | inactive |
| CCCNC(=O)C1CCN(S(=O)(=O)c2cccs2)CC1 | inactive |
| COc1ccc2oc3cc(C)[n+]([O-])c(-c4ccc(C)cc4)c3c2c1 | inconclusive: 39.8 µM [inhibitor, single point] |
| CCOc1ccccc1/C=C(\NC(=O)c1ccccc1)C(=O)NCCC(=O)O | inactive |
| COC(=O)c1ccccc1NC(=O)c1noc2c1CCC2 | inactive |
| CC(O)c1nc2ccccc2n1CC(=O)Nc1ccc(F)cc1Cl (configuration not stated) | inactive |
| CN1CCN(C(=O)CN(CCc2ccccc2)S(C)(=O)=O)CC1 | inactive |
| COc1ccc(S(=O)(=O)NCCc2ccccc2)cc1 | inactive |
| CCSc1nnc(NC(=O)CSc2nc3c(c(=O)n2CCOC)SC(C)C3)s1 (configuration not stated) | inactive |
| Cn1/c(=N/N=C/c2ccc([N+](=O)[O-])cc2)sc2ccccc21 | inactive |
| COc1cc(/C=N/NC(=O)c2cc(-c3ccco3)nc3ccccc23)cc(OC)c1O | inconclusive: 22.4 µM [inhibitor, partial curve] |
| Oc1ccc(N=C/C=C/c2ccc(Br)cc2)cc1-c1nc2ccccc2s1 | active: 14.1 µM |
| CCc1cc2ccc(OC)cc2nc1SCC(=O)N1CCN(C(=O)c2ccco2)CC1 | inconclusive: 22.4 µM [inhibitor, single point] |
| Cn1cc(SCC(=O)O)c2ccccc21 | inconclusive: 28.2 µM [inhibitor, single point] |
| CCC(=O)c1c(NC(CC)CO)cc(C)oc1=O (configuration not stated) | inactive |
| COC(=O)C1C(=O)C2=C(CC1C)NC(C)=C(C(=O)OCCOc1ccccc1)C2c1ccc(C)o1 (configuration not stated) | inconclusive: 28.2 µM [inhibitor, single point] |
| CCOc1ccc(C2c3c(oc4ccccc4c3=O)C(=O)N2CCCN2CCOCC2)cc1 (configuration not stated) | inconclusive: 39.8 µM [inhibitor, single point] |
| COc1ccccc1N/N=C/c1ccc2c(c1)OCO2 | inconclusive: 35.5 µM [inhibitor, single point] |

| Compound | Potency |
| --- | --- |
| O=c1[nH]c2cc(Cl)cc(Cl)c2[nH]c1=O | inconclusive: 25.1 µM [inhibitor, partial curve] |
| Cn1cc(-c2nnnn2-c2ccccc2)c(=O)c2ccccc21 | inactive |
| CCn1c(C)csc1=NC(=O)c1ccccc1O | inconclusive: 20 µM [inhibitor, partial curve] |
| N#CC1=C(N)C(C#N)(C#N)C(c2cccnc2)C2CCCC=C12 (configuration not stated) | inconclusive: 22.4 µM [inhibitor, partial curve] |
| Cc1ncoc1C(=O)N1CCCC(C(=O)c2ccc(C(F)(F)F)cc2)C1 (configuration not stated) | inactive |
| O=C(NCc1ccco1)c1cnn2cccnc12 | inconclusive: 28.2 µM [inhibitor, partial curve] |
| Cc1ccc(C(=O)OCC(=O)Nc2ccccc2)cc1NC(=O)c1ccco1 | inactive |
| CC1(C)CC(=O)C(C=Nc2ccc(NC3=C(C#N)C(=O)CC(C)(C)C3)cc2)=C(O)C1 | inconclusive: 39.8 µM [inhibitor, single point] |
| CC(=O)c1ccc2noc(-c3cccc(C)c3)c2c1 | inconclusive: 31.6 µM [inhibitor, partial curve] |
| Cc1ccc(-c2nc3ccccc3[nH]2)s1 | inconclusive: 28.2 µM [inhibitor, partial curve] |
| COc1ccc(-c2csc3nc(C)nc(N4CCN(c5ccc(C(C)=O)cc5)CC4)c23)cc1OC | inconclusive: 28.2 µM [inhibitor, single point] |
| COC(=O)c1c(NC(=O)CSc2nc(-c3ccco3)cc(C(F)(F)F)n2)sc2c1CCCC2 | inactive |
| O=C(Cc1ccc(Cl)cc1)NNC(=S)NC(=O)c1cccnc1 | inconclusive: 20 µM [inhibitor, partial curve] |
| Cc1ccc2cc(C)c(N3CCN(c4ccccn4)CC3)nc2c1 | inconclusive: 31.6 µM [inhibitor, partial curve] |
| Cc1nn(-c2ccccc2)c2[nH]c(C(F)(F)F)cc(=O)c12 | inconclusive: 25.1 µM [inhibitor, partial curve] |
| Cc1ccc(-c2cc(C(=O)N3CCOCC3)c3ccccc3n2)cc1 | inconclusive: 28.2 µM [inhibitor, partial curve] |
| CSc1ccc(C(=O)C2CCCN(Cc3cccc4nccnc34)C2)cc1 (configuration not stated) | inactive |
| Cc1ccc(O)c(N=Cc2sc3ccccc3c2Cl)c1 | active: 25.1 µM |
| COC(=O)c1ccc(-c2nc(O)c(C)s2)cc1 | inconclusive: 39.8 µM [inhibitor, single point] |
| CCC(C(=O)NC(C)CCc1ccccc1)n1nc(C)n2c(cc3occc32)c1=O (configuration not stated) | inconclusive: 39.8 µM [inhibitor, single point] |
| COc1cc2c(cc1OC)C1=NC(=O)CN1C(SCc1ccccc1)=N2 | inconclusive: 35.5 µM [inhibitor, partial curve] |
| NC(=O)C1CCN(CCC(=O)Nc2ccc(Br)cc2)CC1 | inconclusive: 2.51 µM [inhibitor, full curve, poor fit] |
| CCOc1c2ccc(C(=O)NCc3ccco3)cc2nn1CCOC | inconclusive: 31.6 µM [inhibitor, partial curve] |
